Assay results: ChEMBL document CHEMBL4888484, “Replenishing the malaria drug discovery pipeline: Screening and hit evaluation of the MMV Hit Generation Library 1 (HGL1) against asexual blood stage Plasmodium falciparum ,using a nano luciferase reporter read-out” (2022)
Among all 150,000 compounds or so, about 540 (0.36%) showed an effect of 50% or more. The list shows a part of the results.

test system: Plasmodium falciparum; assay: Primary screen in NF54 nanoGlo assay, in single point, at 2uM, 72h; a lower Z score goes with more inhibition; format: functional, Erythrocyte; settings: timepoint 72 hour

Row | SMILES | % Inhibition [%] | Z score
1 | CCCC1CCCCC1NC(=O)N(C)CC (stereo not drawn) | 0 | 0.05
2 | CCc1ccc(CNC(=O)c2cccc(C(=O)NCc3ccc(CC)cc3)n2)cc1 | -15 | 2
3 | CC(C)N1C(=O)NC(C)(C2CCCN(CCc3ccccn3)C2)C1=O (stereo not drawn) | -4 | 0.84
4 | Cc1c(C)[n+]([O-])c([C@@H](c2cc(F)c(F)c(F)c2)C2C(=O)OC(C)(C)OC2=O)n1C | -8 | 0.97
5 | CC(=O)N[C@@H](c1nc(-c2ccc(C(F)F)nc2)no1)C(C)C | -3 | 0.45
6 | Cc1ccncc1NC(=O)N1CCCCC[C@H]1c1noc(-c2cnn(C)c2)n1 | -13 | 1.46
7 | Cc1cc(CN(C)C(=O)[C@H]2CC(=O)N(C(C)C)C2)no1 | 1 | -0.07
8 | CC(=O)NCc1ccc(C(=O)NC[C@](C)(O)C2CCCCC2)s1 | -16 | 1.57
9 | COCc1ncsc1C(=O)N1C[C@H](C)Oc2c(F)cccc21 | 11 | -1.62
10 | COc1cccc([C@H](C(=O)O)N2CCC(c3nc4ccccc4n3C)CC2)c1 | -3 | 0.54
11 | C[C@H]1CCC(=O)N1c1cccc(NC(=O)c2cc(C#N)c[nH]2)c1 | -13 | 2.01
12 | CN1C(=O)COc2cc(NC(=O)N[C@H]3COC[C@@H]3N3CCCC3)ccc21 | 16 | -2.02
13 | CC[C@@H](C(=O)O)N1CCC(OCCc2ccccc2)CC1 | 0 | 0.06
14 | COc1cc(NC(=O)[C@@H]2CCCN2C(=O)C2CCC(C)CC2)cc(OC)c1OC (stereo partly drawn) | 29 | -3.32
15 | O=C(Nc1ccccc1N1CCCN(Cc2ccc(F)cc2)C1=O)c1ccco1 | -1 | 0.16
16 | Cn1cc(CN2CCOCCNC(=O)CC2)c2ccccc21 | -5 | 0.66
17 | CC(=O)Nc1onc(C)c1-c1ccc(C)c(S(=O)(=O)Nc2cccc(C)c2C)c1 | -9 | 1.31
18 | COc1ccc(CC(=O)N2CCC(COCc3ccc(Cl)cc3)CC2)cc1OC | 16 | -1.78
19 | NC(=O)c1ccc(N2CCOC3(CCCC3)C2)nn1 | 12 | -1.42
20 | CC(C)Cc1ncc(C(=O)Nc2snc3ncccc23)s1 | 15 | -2.9
21 | CCCc1noc(C(C)NC2CCN(C(=O)CC)CC2C)n1 (stereo not drawn) | -12 | 1.83

Row | SMILES | % Inhibition [%] | Z score
22 | COc1cncc(C(=O)N(CC(F)(F)F)C2CCCC2)n1 | 1 | -0.17
23 | O=C(N1CCc2[nH]c3ccc(F)cc3c(=O)c2C1)C(F)(F)F | -1 | 0.19
24 | COc1ccccc1CNC(=O)CN1CC[C@](C)(O)[C@@H](O)C1 | -10 | 1.27
25 | CNC(=O)CCC(C)(C)NC(=O)c1ccoc1 | -2 | 0.33
26 | CC(C)c1noc(-c2cc(C3CC3)n(C)n2)n1 | -11 | 1.08
27 | O=C(N[C@H]1CCOC[C@@H]1OCC1CCC1)c1nccnc1O | -20 | 3.19
28 | CCn1ccc(C(=O)N2CCC[C@H](CN3CCC(C)CC3)CC2)n1 | -2 | 0.39
29 | CN1CCN(S(=O)(=O)c2ccc(Cl)cc2)C[C@H]1c1ccccc1 | 35 | -3.99
30 | CN(C)CCNCCOCCOc1ccccc1 | -5 | 0.73
31 | COc1cccc([C@H]2CN(c3cc(C)ccn3)C[C@@H]2C(=O)O)c1OC | -4 | 0.43
32 | CN(C)c1cc(N[C@H]2CCC[C@@H]2N(C)C)ncn1 | -4 | 0.54
33 | CC(C1CC1)n1cc(NC(=O)N2CCC(C(F)(F)F)C2(C)C)cn1 (stereo not drawn) | -10 | 1.23
34 | CN(Cc1ccc(F)cc1Cl)C(N)=O | -9 | 1.22
35 | COc1cccc(Cl)c1-c1ncnc2sc(C)c(C)c12 | -2 | 0.23
36 | Cc1cc(C)nc(NCCCC(=O)Nc2cnn(C)c2)n1 | -5 | 0.59
37 | CCCNc1nc(-c2ccc3c(c2)OCO3)cs1 | -4 | 0.48
38 | O=C(COc1ccccc1)N[C@H]1CC[C@H](Oc2cnccn2)CC1 | -11 | 1.27
39 | Cc1ncc(C)c(-c2cccc(-c3ccn(CCn4cccn4)n3)c2)n1 | -10 | 1.47
40 | COc1ccc2c(c1)CCCN(C(=O)N[C@H]1CCS(=O)(=O)C1)C2 | 5 | -0.44
41 | CNS(=O)(=O)c1ccc2c(c1)CCN2 | -14 | 2.67
42 | Cn1cc(CN2CCn3nc(CO)cc3C2)cn1 | -16 | 1.64

Row | SMILES | % Inhibition [%] | Z score
43 | OC(CN1CCCCC1Cn1cncn1)c1ccccc1F (stereo not drawn) | 4 | -0.56
44 | Cc1nc(C2CC(O)C2)cc(N2CCCCCCC2)n1 (stereo not drawn) | -1 | 0.11
45 | Cc1cnc([C@@H](Nc2ncc(C(F)(F)F)cc2Cl)C2CC2)s1 | -9 | 0.8
46 | CCOc1ccc(N2C[C@@H](c3nnc(NC(=O)c4cccc(Cl)c4)o3)CC2=O)cc1 | 4 | -0.6
47 | O=C(O)c1ccc(CN2C[C@H]3COCC[C@@]3(O)[C@@H]3COCC[C@@H]32)cc1 | -4 | 0.66
48 | Cc1ccc(-n2nc(C)c3nc(CCC(=O)NCCCN4CCCCC4)c(=O)n(C)c32)cc1 | -9 | 1.27
49 | CC(C)c1nnc(CN2CCN(C)S2(=O)=O)s1 | -9 | 1.73
50 | CCCN(CC(=O)N1CCN(c2ccc(-c3cccc(OC)c3)nn2)CC1)S(=O)(=O)c1ccc(OC)cc1 | -6 | 0.95
51 | O=C(O)c1ccc2[nH]c3c(c2c1)CN(C(=O)c1ccc2c(c1)CCOC2)CC3 | -3 | 0.51
52 | Cc1ccc(-c2nn(C)cc2C(=O)N[C@@H]2COC(C)(C)C2)o1 | -4 | 0.68
53 | CC(C)Oc1ccc(C(=O)N(Cc2ccc(N(C)C)cc2)[C@H]2CCS(=O)(=O)C2)cc1 | -9 | 0.8
54 | Cc1ncc(C(C)C)c(NCc2ccc(CN)cc2)n1 | -10 | 1.86
55 | Nc1c2c(-c3cccc(F)c3)nc(NCc3ccccc3)nc2nn1-c1cc(F)ccc1F | -4 | 0.56
56 | CC(C)(C)OC(=O)NC1CCN(C(=O)Cn2c(=O)nc(-c3ccccc3)c3cc(Cl)ccc32)CC1 | -7 | 0.71
57 | Cc1ccccc1[C@H]1CN(C(=O)c2ccc(C(C)C)[nH]c2=O)C[C@@H]1C(=O)O | -1 | 0.13
58 | Brc1ccc(-c2nc(-c3ccncc3)no2)o1 | -2 | 0.21
59 | CO[C@@]12CC[C@@H](NC(C)=O)C[C@@H]1N(C(=O)CCc1c(C)nn(C)c1C)CC2 | 1 | -0.07
60 | Cc1ccc2c(C(=O)N3CCN(C)CC3)cc(-c3cnn(C)c3)nc2c1C | -1 | 0.09
61 | CC(C)(C)OC(=O)[C@@H]1CCCN1c1ccc2nccnc2n1 | -9 | 0.77
62 | Cc1ccc(-c2nc(CN3CCc4cncnc4C3)co2)c(C)c1 | -4 | 0.53
63 | Cc1ccc(CNC(=O)c2cccc(-c3cnc4ccccc4c3)c2)cc1 | -11 | 1.37

Row | SMILES | % Inhibition [%] | Z score
64 | Cc1nn(C)c2nc(N(CCN3CCOCC3)Cc3ccco3)sc12 | -4 | 0.65
65 | O=C(O)COc1ccc(C(=O)N[C@H]2C[C@H](c3ccccc3F)C2)cc1 | -2 | 0.3
66 | CCC1C(C)CCN1C(=O)c1snc(OC)c1Br (stereo not drawn) | 5 | -0.73
67 | COc1ccc([C@H]2CCCCN(C(=O)N3CCOCC3)C2)cc1 | 28 | -3.51
68 | Cc1ccc2nc(N3CCNCC3)c(-c3noc(-c4ccccc4)n3)cc2c1 | -1 | 0.18
69 | Cc1ccc(NC(=O)Cc2nc(Cc3ccccc3F)n[nH]2)cc1 | 1 | -0.09
70 | C[C@@H](C(=O)N1CCN(c2cc(=O)n(C)c(=O)n2C)CC1)N1C(=O)COc2ccccc21 | -3 | 0.54
71 | O=C(Cn1ccc2ccccc21)N1CCC(c2nnc(C3CC3)o2)CC1 | 5 | -0.6
72 | Cc1nc(CC(=O)NCCCc2c(C)n[nH]c2C)c(C)s1 | -2 | 0.27
73 | O=C(N[C@H]1C[C@@H]2C[C@H]1CN2C(=O)NCCc1ccccc1)c1ccccc1 | 32 | -3.62
74 | Cc1ccc(C2OCCCC2NC(=O)c2cnn(C)c2)cc1 (stereo not drawn) | -7 | 0.68
75 | COc1nn(C)cc1CNC(=O)N[C@H](C)c1ccc(F)cc1Cl | 17 | -2.85
76 | CC(C)(C)n1nnnc1CN1CCC[C@H]1c1ncccn1 | -6 | 0.83
77 | CC(C)COc1cccc([C@H]2CC(=O)Nc3c2cnn3C(C)C)c1 | -7 | 0.92
78 | Cn1c(COc2ccccc2C(N)=O)nnc1-c1ccc(Cl)cc1 | 3 | -0.35
79 | CN(C)Cc1ccccc1C(=O)N1CCN2C(=O)OC[C@H]2C1 | 2 | -0.21
80 | Cc1cccc(C2CCC(C(=O)NC3CC3)CN2C(=O)Cc2ccccc2)c1 (stereo not drawn) | 9 | -1.3
81 | CCOC(=O)N1CCC(NC(=O)c2cnn3c(-c4ccc(Cl)cc4)ccnc23)CC1 | 34 | -3.9
82 | COc1ccc2nnc(CNC(=O)c3snnc3C)n2n1 | 24 | -3.02
83 | C[C@H]1CCCN(C(=O)CCS(C)(=O)=O)c2ccccc21 | -11 | 0.94
84 | O=C(NCC(=O)N(C[C@H]1CCCO1)C1(C(=O)NC2CCCC2)CCCCC1)c1ccccc1 | 2 | -0.27
